Measurements from PubChem BioAssay AID1460 (National Center for Advancing Translational Sciences (NCATS), 2008).
The campaign covered roughly 270,000 compounds. About 5,800 (2.1%) were called active. Inconclusive results, whose numbers are uncertain, are shown with a selection of clear calls. Calls follow the shape of the dose curve; as a rule, active = well fitted inhibition curve with a large enough effect; inconclusive = small, poorly fitted or top-dose-only effect; inactive = flat fitted curve, though single readings scatter. A potency beside an inconclusive call is a rough fit, not a confirmed value.

Each molecule was assayed against Microtubule-associated protein tau (Homo sapiens) (UniProt P10636) (assay: qHTS for Inhibitors of Tau Fibril Formation, Thioflavin T Binding). Conditions: recombinant tau K18 P301L (four-repeat tau fragment), heparin-induced fibrillization, ThT fluorescence; series mostly up to 57.4 µM.
In short: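 Recombinant human tau K18 fragment […] carrying P301L, 15 uM unlabeled plus 0.24 uM Alexa 594-labeled, was fibrillized with 20 uM heparin in 100 mM sodium acetate pH 7 for 6 hr at 37 C; 30 uM ThT fluorescence read after 1 hr.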
Also: nearly all actives have a fitted effect of over 55% in size.
Potency is read from the fitted curve at half-maximal effect; tags tell the direction and shape of the fitted curve.

Sequence of UniProt P10636 (P10636 whole entry, looked up, the tested form may be a part): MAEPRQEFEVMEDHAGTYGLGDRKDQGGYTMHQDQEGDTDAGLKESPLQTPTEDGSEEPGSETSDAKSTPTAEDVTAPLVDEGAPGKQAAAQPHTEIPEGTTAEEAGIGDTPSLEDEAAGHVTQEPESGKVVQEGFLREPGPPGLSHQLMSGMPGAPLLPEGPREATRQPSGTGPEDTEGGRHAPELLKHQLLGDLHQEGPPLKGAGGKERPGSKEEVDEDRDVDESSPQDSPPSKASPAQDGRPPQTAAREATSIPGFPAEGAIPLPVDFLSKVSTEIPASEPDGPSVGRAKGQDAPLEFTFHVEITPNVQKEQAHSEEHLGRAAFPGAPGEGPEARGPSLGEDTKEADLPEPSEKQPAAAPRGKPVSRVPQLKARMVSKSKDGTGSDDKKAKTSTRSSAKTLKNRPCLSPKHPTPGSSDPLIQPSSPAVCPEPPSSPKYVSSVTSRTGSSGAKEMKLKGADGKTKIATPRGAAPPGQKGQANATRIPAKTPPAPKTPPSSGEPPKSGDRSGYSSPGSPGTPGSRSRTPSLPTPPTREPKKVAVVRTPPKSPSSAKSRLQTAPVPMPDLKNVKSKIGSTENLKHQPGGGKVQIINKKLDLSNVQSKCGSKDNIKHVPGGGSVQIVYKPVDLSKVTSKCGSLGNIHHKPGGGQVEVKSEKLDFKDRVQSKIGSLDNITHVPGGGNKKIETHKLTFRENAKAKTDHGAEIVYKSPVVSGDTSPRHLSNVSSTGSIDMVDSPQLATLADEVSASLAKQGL

**Q.** For `COC(=O)c1sccc1NC(=O)c1cc2c(s1)CCCC2`, which Potency is on record?
**A.** inconclusive: 15.8 µM [inhibitor, partial curve]

**Q.** For `COc1ccc(/C=C/C(=O)Nc2sc3c(c2C(=O)NCc2cccnc2)CCCC3)cc1`, which Potency is on record?
**A.** inconclusive: 14.1 µM [inhibitor, partial curve]

**Q.** With `Cc1cccc(N2CCN(C(=O)Nc3cn(CC(C)C)c(=O)c4ccccc34)CC2)c1C` as the molecule, how does the Potency read?
**A.** inconclusive: 10 µM [inhibitor, partial curve]

**Q.** How did the Potency turn out when `CCOc1ccc(NC(=S)N(Cc2ccc(Cl)cc2)Cc2ccco2)cc1` was run?
**A.** inactive

**Q.** Which Potency does the source give for `CCC(Sc1nc(N)c(NC(=O)c2ccc(OC)c(OC)c2)c(=O)[nH]1)C(=O)OC` (stereo unspecified) here?
**A.** inactive

**Q.** How did the Potency turn out when `Cc1cc(C)c(N=C2CCCN2Cc2ccccc2)c(C#N)c1` was run?
**A.** inactive

**Q.** How did the Potency turn out when `Cc1nnc(N2CCC(C(=O)NCCc3ccccc3Cl)CC2)c2nn(-c3ccccc3)c(C)c12` was run?
**A.** inactive

**Q.** With `Nc1c(-c2ccc(Cl)cc2)cnn1-c1cccc([N+](=O)[O-])c1` as the molecule, how does the Potency read?
**A.** inconclusive: 2.82 µM [inhibitor, full curve]

**Q.** With `COc1ccc(/C=C/C(=O)NC(=S)NNC(=O)c2ccco2)cc1` as the molecule, how does the Potency read?
**A.** inconclusive: 14.1 µM [inhibitor, partial curve]

**Q.** For `COc1ccc2c(c1)c1ncn(CCN3CCCC3)c(=O)c1n2C`, which Potency is on record?
**A.** inactive

**Q.** `Cc1c(O)ccc(C(=O)COc2ccc(F)cc2)c1O` was tested. Which Potency did it give?
**A.** inactive

**Q.** With `Fc1ccc(Nc2nc(NCc3ccco3)c3ccccc3n2)cc1` as the molecule, how does the Potency read?
**A.** inconclusive: 4.47 µM [activator, single point]

**Q.** `O=C(Nc1ccc(N2CCOCC2)cc1)c1cc2c(s1)CCCCC2` was tested. Which Potency did it give?
**A.** active: 10 µM

**Q.** For `CCOC(=O)c1cccc(NC(=O)CSc2nnnn2C)c1`, which Potency is on record?
**A.** inactive

**Q.** How did the Potency turn out when `O=C(O)C(=O)Cc1c[nH]c2ccccc12` was run?
**A.** inconclusive: 28.2 µM [inhibitor, partial curve]

**Q.** For `O=C(N/N=C/c1cc([N+](=O)[O-])ccc1N1CCCCCC1)c1ccccn1`, which Potency is on record?
**A.** inconclusive: 25.1 µM [inhibitor, partial curve]

**Q.** With `Cc1nnc(SCCn2c(N3CCC(Cc4ccccc4)CC3)nc3c2c(=O)[nH]c(=O)n3C)s1` as the molecule, how does the Potency read?
**A.** inconclusive: 22.4 µM [inhibitor, single point]

**Q.** How did the Potency turn out when `N=C1/C(=C\c2coc3ccccc3c2=O)C(=O)N=C2SC(c3ccncc3)=NN12` was run?
**A.** active: 12.6 µM

**Q.** `COc1ccc(N=CC2=C(O)c3ccccc3C2=O)c(OC)c1` was tested. Which Potency did it give?
**A.** inconclusive: 4.47 µM [inhibitor, full curve]

**Q.** `CCOc1ccccc1CNC(=O)C1CCN(c2nn3cc(-c4ccc(F)cc4)nc3s2)CC1` was tested. Which Potency did it give?
**A.** inconclusive: 0.501 µM [inhibitor, full curve, poor fit]

**Q.** `CCCCCCOc1ccc(C2C(=O)N(C3CCCCC3)CC(=O)N2CCC)cc1` (stereo unspecified) was tested. Which Potency did it give?
**A.** inconclusive: 8.91 µM [inhibitor, partial curve]

**Q.** For `CC(C)=CCC/C(C)=C/C=N/NC(=O)c1ccc([N+](=O)[O-])cc1`, which Potency is on record?
**A.** inconclusive: 3.55 µM [inhibitor, full curve]

**Q.** With `O=C(CSc1oc(-c2cccs2)nc1S(=O)(=O)c1ccccc1)NC1CCCCC1` as the molecule, how does the Potency read?
**A.** inconclusive: 44.7 µM [inhibitor, single point]

**Q.** With `N#Cc1c(N)nc(N2CCCC2)c(C#N)c1-c1ccc(Cl)cc1` as the molecule, how does the Potency read?
**A.** inactive

**Q.** Which Potency does the source give for `CCCCNC(=S)N1CCN(C)CC1` here?
**A.** inactive

**Q.** For `CCCCn1c(=O)[nH]c2ccccc21`, which Potency is on record?
**A.** inactive

**Q.** With `CCOc1ccc(C(=O)Nc2cccc(-c3nc4cc(Cl)cc(Cl)c4o3)c2)cc1` as the molecule, how does the Potency read?
**A.** inactive

**Q.** With `CCOc1cc(/C=N/NC(=O)CN2CCCCC2)ccc1OCc1cccc(Cl)c1` as the molecule, how does the Potency read?
**A.** inconclusive: 11.2 µM [inhibitor, partial curve, poor fit]

**Q.** How did the Potency turn out when `O=C(CSc1ccc([N+](=O)[O-])cn1)Nc1ccc(N2CCOCC2)c(Cl)c1` was run?
**A.** inconclusive: 20 µM [inhibitor, partial curve, poor fit]

**Q.** Which Potency does the source give for `CCOc1cccc2cc(C(=O)NCCC3=CCCCC3)c(=O)oc12` here?
**A.** inconclusive: 22.4 µM [inhibitor, single point]

**Q.** How did the Potency turn out when `Cc1nn(-c2ccccc2)c2c1N(CC(=O)N1CCN(c3cccc(Cl)c3)CC1)C(=O)CS2` was run?
**A.** inactive

**Q.** For `Cc1nc(SCC(=O)NCc2ccco2)nc(C)c1C`, which Potency is on record?
**A.** inconclusive: 0.158 µM [inhibitor, full curve, poor fit]

**Q.** `O=C(O)CC1S/C(=N/N=C/C=C/c2ccccc2)NC1=O` (stereo unspecified) was tested. Which Potency did it give?
**A.** inconclusive: 20 µM [inhibitor, partial curve]

**Q.** `COc1cc([N+](=O)[O-])ccc1Nc1nc(C)cc(C)n1` was tested. Which Potency did it give?
**A.** inactive

**Q.** For `Brc1ccccc1OCCCn1cnc2ccccc21`, which Potency is on record?
**A.** inconclusive: 31.6 µM [inhibitor, partial curve]

**Q.** For `COc1ccc(CNc2nc(NCc3ccc(OC)cc3)n(C(=O)c3ccncc3)n2)cc1`, which Potency is on record?
**A.** inconclusive: 28.2 µM [inhibitor, single point]

**Q.** For `CCc1nn(CC(=O)NCCCN(CC(C)C)CC(C)C)c(=O)c2cc3sc(C)cc3n12`, which Potency is on record?
**A.** inactive

**Q.** `COc1cc(C2C3=C(Nc4ncnn42)c2ccccc2CC3)cc(OC)c1OC` (stereo unspecified) was tested. Which Potency did it give?
**A.** inconclusive: 25.1 µM [inhibitor, partial curve, poor fit]

**Q.** Which Potency does the source give for `CN(C(=O)c1nc(-c2cccc(F)c2)n2c1CCCCC2)c1ccccc1F` here?
**A.** inactive

**Q.** `COc1cc(-c2cc(OC)c3c(C)oc(C)c3c(=O)c2)ccc1OC(=O)c1ccccc1C` was tested. Which Potency did it give?
**A.** inconclusive: 20 µM [inhibitor, single point]

**Q.** `C=CCn1c(COc2ccccc2)nnc1SC(C)C(=O)N/N=C/c1cc(Cl)ccc1O` (stereo unspecified) was tested. Which Potency did it give?
**A.** inactive

**Q.** With `N=c1nc(N)nc2n1NC(c1ccc(F)cc1)=CS2` as the molecule, how does the Potency read?
**A.** inconclusive: 8.91 µM [inhibitor, partial curve]

**Q.** Which Potency does the source give for `CN1CCN(NC(=O)CN2C(=O)/C(=C/c3ccccc3Cl)SC2=S)CC1` here?
**A.** inconclusive: 25.1 µM [inhibitor, partial curve]

**Q.** Which Potency does the source give for `Cc1ccc(SC(=O)COc2ccc(C)c(C)c2)cc1` here?
**A.** inconclusive: 20 µM [inhibitor, single point]

**Q.** Which Potency does the source give for `COn1c(SCc2ccc(C)cc2C)nc2ccccc2c1=O` here?
**A.** inconclusive: 28.2 µM [inhibitor, partial curve]

**Q.** How did the Potency turn out when `CCCN(CCC)CCCNC(=O)Cn1cnc2onc(-c3ccc(F)cc3)c2c1=O` was run?
**A.** inactive

**Q.** `CCc1ccc2oc(-c3ccc(OC)cc3)cc(=Nc3c(C)n(C)n(-c4ccccc4)c3=O)c2c1` was tested. Which Potency did it give?
**A.** active: 11.2 µM

**Q.** `Cc1sc(NC(=S)NC(=O)c2ccc(C(C)(C)C)cc2)c(C#N)c1C` was tested. Which Potency did it give?
**A.** inconclusive: 2.82 µM [inhibitor, partial curve]

**Q.** With `CCOC(=O)c1c(-c2cccc(C)c2)csc1NC(=O)C1CC=CCC1C(=O)O` (stereo unspecified) as the molecule, how does the Potency read?
**A.** inconclusive: 11.2 µM [inhibitor, partial curve]

**Q.** For `COc1cc(/C=N/NC(=O)c2cncc(Br)c2)ccc1OC(=O)c1ccc2c(c1)OCO2`, which Potency is on record?
**A.** inactive

**Q.** Which Potency does the source give for `O=C(Nc1ccc(Cc2ccncc2)cc1)c1ccc(N2CCOCC2)c([N+](=O)[O-])c1` here?
**A.** inconclusive: 25.1 µM [inhibitor, partial curve]

**Q.** How did the Potency turn out when `CCNC(=O)c1ccc(CSc2ccc(Cl)cc2)cc1` was run?
**A.** inconclusive: 1.78 µM [inhibitor, full curve, poor fit]

**Q.** With `O=C(c1ccc([N+](=O)[O-])cc1[N+](=O)[O-])n1cnc2ccccc21` as the molecule, how does the Potency read?
**A.** inactive

**Q.** How did the Potency turn out when `CCOc1ccc(NC(=O)c2ccc3nccnc3c2)cc1` was run?
**A.** inconclusive: 15.8 µM [inhibitor, partial curve]

**Q.** `CCOc1ccc(/C=N/Nc2nc(N3CCCC3)nc(N3CCCC3)n2)cc1OC` was tested. Which Potency did it give?
**A.** inconclusive: 25.1 µM [inhibitor, partial curve]

**Q.** With `CCCCc1c(C)nc2c(OC)cccc2c1SCCC(=O)O` as the molecule, how does the Potency read?
**A.** inactive

**Q.** How did the Potency turn out when `Cc1cc(OCCCSc2nc(-c3ccc(C(C)(C)C)cc3)nc3cc(=O)[nH]n23)ccc1Cl` was run?
**A.** inactive

**Q.** With `CCc1ccc(-c2cc(C(F)(F)F)n3nc(C(=O)Nc4c(C)nn(Cc5ccc(F)cc5)c4C)cc3n2)s1` as the molecule, how does the Potency read?
**A.** inconclusive: 10 µM [inhibitor, partial curve]

**Q.** With `CC1Cc2nc(SCC(=O)N3CCN(c4ccccc4)CC3)n(CCc3ccccc3)c(=O)c2S1` (stereo unspecified) as the molecule, how does the Potency read?
**A.** inconclusive: 17.8 µM [inhibitor, single point]

**Q.** With `COCCNC(=S)c1ccc(Br)cc1` as the molecule, how does the Potency read?
**A.** inconclusive: 28.2 µM [inhibitor, single point]

**Q.** How did the Potency turn out when `c1ccc(OCc2nnc3n2N=C(c2ccccc2)CS3)cc1` was run?
**A.** inconclusive: 15.8 µM [inhibitor, partial curve]

**Q.** With `Oc1c(Br)cc(Br)cc1CNc1ccc(F)cc1` as the molecule, how does the Potency read?
**A.** inconclusive: 25.1 µM [inhibitor, partial curve]

**Q.** `CC(C)C(c1nnnn1C1CCCCC1)N1CCc2ccccc2C1` (stereo unspecified) was tested. Which Potency did it give?
**A.** inactive

**Q.** With `CCCOc1ccc(NC(=O)CC2C(=O)N(c3ccccc3)C(=O)N2CCC(C)C)cc1` (stereo unspecified) as the molecule, how does the Potency read?
**A.** inactive

**Q.** Which Potency does the source give for `Cc1onc(-c2ccccc2)c1-c1nc2ccccc2c(=O)o1` here?
**A.** inconclusive: 35.5 µM [inhibitor, single point]

**Q.** How did the Potency turn out when `CN(NC1OC(=O)c2ccccc21)c1c([N+](=O)[O-])cc(C(F)(F)F)cc1[N+](=O)[O-]` (stereo unspecified) was run?
**A.** inconclusive: 3.55 µM [inhibitor, partial curve]

**Q.** For `CC(=O)OCC1OC(C#CCC2CCCCC2)C=CC1OC(C)=O` (stereo unspecified), which Potency is on record?
**A.** inconclusive: 8.91 µM [inhibitor, single point]

**Q.** With `COc1ccc(Nc2cc(C)nc(-n3nc(C)cc3C)n2)cc1Cl` as the molecule, how does the Potency read?
**A.** inconclusive: 11.2 µM [inhibitor, partial curve]

**Q.** Which Potency does the source give for `Cc1ccc(Cn2c(SCC(=O)NCC3CCCO3)nc3ccsc3c2=O)cc1` (stereo unspecified) here?
**A.** inactive

**Q.** `CCOc1ccc(N(CC(=O)Nc2ccccc2C)S(=O)(=O)c2c(C)noc2C)cc1` was tested. Which Potency did it give?
**A.** inactive

**Q.** For `CN(C1CCCCC1)S(=O)(=O)c1ccc(S(=O)(=O)N2CCN(C(=O)c3ccccc3F)CC2)cc1`, which Potency is on record?
**A.** inactive
